Assay results reported in PubChem BioAssay (Tox21).
Values joined by “and” are separate entries in the source; they are usually repeats but may differ in a detail not shown here. Identical values can stand only once. Inconclusive results, whose numbers are uncertain, are shown with a selection of clear calls. Potencies of inconclusive entries are doubtful fits and often do not repeat. More than one record can exist for a structure, and the calls need not agree. Active and inactive are the calls of the source. Unless noted, calls follow the shape of the dose curve; as a rule, active = well fitted curve in the direction sought with a large enough effect in the repeat runs; inconclusive = weak or mixed curves; inactive = no such curve, though single readings can be large; an effect the other way counts as inactive or inconclusive.

Experiments:
[1] = qHTS assay to identify small molecule agonists of the hypoxia (HIF-1) signaling pathway (AID 1224846; active = well fitted activation curve with a large enough effect in the signal ratio in the repeat runs, not every such curve was filed as active; inconclusive = weak or mixed curves; the % refers to the signal ratio); settings: HRE-bla ME-180 cells, beta-lactamase ratio, 17 h; series mostly up to 76.8 µM
Outline: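 Measured by blue/green FRET after loading CCF4-AM: beta-lactamase expressed from a hypoxia response element in ME-180 cells. Test agents were delivered in DMSO and left 17 hrs; cells had been plated 5 hrs earlier in low-serum (0.5% dialyzed FBS) medium.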

[2] = qHTS assay to identify small molecule antagonists of the estrogen related receptor (ERR) signaling pathway from Tox21 library (AID 1224848); also: nearly all actives have a fitted effect of over 50% in size
Outline: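 Antagonist-mode screen of the Tox21 10K library in an NTP-provided ERR reporter cell line; 18 h compound exposure at 37 C, luminescence measured with ONE-Glo.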

[3] = A CellTox Green Cytotoxicity Assay to monitor cytotoxicity in HEK293 cells - 40 hour (AID 1224871); also: nearly all actives have a fitted effect of over 45% in size
Outline: (§1)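 Each value comes from one timepoint of a single continuous run in which HEK293 cells with CellTox Green were exposed to compound for up to 40 h at 37 C, dye fluorescence rising with cell death.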

[4] = A CellTox Green Cytotoxicity Assay to monitor cytotoxicity in HepG2 cells - 40 hour (AID 1224879); also: nearly all actives have a fitted effect of over 40% in size
Outline: (§2)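 Continuous culture of HepG2 cells with a membrane-impermeant DNA dye; rising fluorescence marks dead cells. Compound exposure lasted up to 40 h at 37 C, with reads every 8 h from 0 h.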

[5] = qHTS RealTime-Glo MT Cell Viability Assay in HEK293 cells - 0 hour (AID 1224880); also: nearly all actives have a fitted effect of over 45% in size
Outline: (§3)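 qHTS format; HEK293 cells with NanoLuc/prosubstrate reagent, 37 C/5% CO2 for 5 h pre-dosing; compounds 23 nL in DMSO; luminescence at each time point reflects viable cells.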

[6] = A CellTox Green Cytotoxicity Assay to monitor cytotoxicity in HEK293 cells - 0 hour (AID 1224869); also: nearly all actives have a fitted effect of over 50% in size
Outline: as §1

[7] = A CellTox Green Cytotoxicity Assay to monitor cytotoxicity in HEK293 cells - 24 hour (AID 1224875); also: nearly all actives have a fitted effect of over 45% in size
Outline: as §1

[8] = A CellTox Green Cytotoxicity Assay to monitor cytotoxicity in HepG2 cells - 16 hour (AID 1224876); also: nearly all actives have a fitted effect of over 45% in size
Outline: as §2

[9] = A CellTox Green Cytotoxicity Assay to monitor cytotoxicity in HepG2 cells - 24 hour (AID 1224878); also: nearly all actives have a fitted effect of over 45% in size
Outline: as §2

[10] = A CellTox Green Cytotoxicity Assay to monitor cytotoxicity in HEK293 cells - 32 hour (AID 1224881); also: nearly all actives have a fitted effect of over 40% in size
Outline: as §1

[11] = qHTS RealTime-Glo MT Cell Viability Assay in HEK293 cells - 32 hour (AID 1224868); also: nearly all actives have a fitted effect of over 50% in size
Outline: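 Nonlytic real-time viability readout: viable cells convert prosubstrate to NanoLuc substrate, giving luminescence proportional to live cell number. HEK293, 600 cells/well, compound added after 5 h, continuous culture at 37 C.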

[12] = qHTS RealTime-Glo MT Cell Viability Assay in HEK293 cells - 40 hour (AID 1224874); settings: RealTime-Glo luminescence; max response: hits give low values; also: nearly all actives have a fitted effect of over 50% in size
Outline: as §3

[13] = qHTS RealTime-Glo MT Cell Viability Assay in HepG2 cells - 40 hour (AID 1224870); also: nearly all actives have a fitted effect of over 50% in size
Outline: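 Real-time viability: cells seeded at 600 per well together with NanoLuc and cell-permeant prosubstrate, compounds added after 5 h incubation. Luminescence tracked at 0, 8, 16, 24, 32 and 40 h of exposure.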

[14] = qHTS RealTime-Glo MT Cell Viability Assay in HepG2 cells - 32 hour (AID 1224877); also: nearly all actives have a fitted effect of over 55% in size
Outline: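 Luminescence read-out: viable HepG2 cells reduce a prosubstrate to a NanoLuc substrate, giving a signal proportional to live cell number. Reads taken at 0, 8, 16, 24, 32 and 40 h of compound exposure at 37 C.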

[15] = qHTS assay to identify small molecule agonists of H2AX - cell viability counter screen (AID 1224847; calls by dose curve; also: nearly all actives have a fitted effect of over 30% in size)
Outline: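 We seed wild-type CHO-K1 cells overnight, treat them for 3 hr at 37C with compounds in 15-concentration series, and quantify remaining viability by CellTiter-Glo luminescence.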
Potency is read from the fitted curve at half-maximal effect; tags tell the direction and shape of the fitted curve or compound fluorescence and quenching.

Structure (SMILES): CC1(C)O[C@@H]2C[C@H]3[C@@H]4CCC5=CC(=O)C=C[C@]5(C)[C@@]4(F)[C@@H](O)C[C@]3(C)[C@]2(C(=O)CO)O1
- Potency [1]: inconclusive: 0.0239 µM [rising, full curve, poor fit]
- Potency [2]: inconclusive: 54.8 µM [inhibitor, partial curve]
- Potency [3]: active: 9.52 µM
- Potency [4]: inactive
- Potency [5]: inconclusive: 17.5 µM [falling, partial curve]

Structure (SMILES): Cc1cccc(O)c1C
- Potency [1]: inconclusive: 61.2 µM [activator, single point]
- Potency [2]: inactive
- Potency [6]: inconclusive: 22.5 µM [activator, partial curve]
- Potency [3]: inconclusive: 20.1 µM [activator, partial curve]
- Potency [7]: inconclusive: 22.5 µM [activator, single point]
- Potency [8]: inconclusive: 50.4 µM [activator, single point]
- Potency [9]: inconclusive: 50.4 µM [activator, single point]
- Potency [5]: inconclusive: 61.2 µM [rising, single point]
- Potency [10]: inconclusive: 20.1 µM [activator, partial curve, poor fit]

Structure (SMILES): CCCCC(CC)COP(=O)(O)O (stereo not given)
- Potency [1]: inactive
- Potency [11]: inconclusive: 62.7 µM [cytotoxic, single point]
- Potency [3]: inconclusive: 55.9 µM [activator, single point]
- Potency [12]: inconclusive: 55.9 µM [cytotoxic, single point]
- Potency [7]: inconclusive: 62.7 µM [activator, single point]
- Potency [10]: inconclusive: 62.7 µM [activator, single point]

Structure (SMILES): C1CC(COCC2CO2)CCC1COCC1CO1 (stereo not given)
- Potency [1]: inconclusive: 61.6 µM
- Potency [2]: inconclusive: 68.6 µM [inhibitor, single point]
- Potency [12]: inconclusive: 61.6 µM [cytotoxic, single point]

Structure (SMILES): c1cc(N(CC2CO2)CC2CO2)ccc1OCC1CO1 (stereo not given)
- Potency [1]: inconclusive: 55 µM [single point] and inconclusive: 54.9 µM
- Potency [2]: active: 61.2 µM and active: 54.5 µM
- Potency [13]: inconclusive: 54.9 µM [falling, single point]
- Potency [3]: inconclusive: 24.6 µM [activator, partial curve, poor fit]
- Potency [14]: inconclusive: 54.9 µM [cytotoxic, partial curve, poor fit]
- Potency [4]: inconclusive: 54.9 µM [activator, single point]

Structure (SMILES): O=C=NCC1CCCC(CN=C=O)C1 (stereo not given)
- Potency [15]: inconclusive: 2.53 µM [cytotoxic, single point]
